# Assay results taken from PubChem BioAssay AID1345082 (National Center for Advancing Translational Sciences (NCATS), 2018).
# The campaign covered roughly 94,000 compounds. About 4,000 (4.3%) were called active. The inconclusive results got no clear call from the source; some entries with a clear call stand among them for comparison. Calls follow the shape of the dose curve; as a rule, active = well fitted inhibition curve with a large enough effect; inconclusive = small, poorly fitted or top-dose-only effect; inactive = no such curve, though single readings can be large or run the other way. Potencies beside an inconclusive call are fits to weak or partial responses and may not hold up.
# Assay: Cytotoxic Profiling in NIH 3T3 Cell Line of Diverse Libraries Using Quantitative High-Throughput Screening; also: nearly all actives have a fitted effect of over 55% in size
# Conditions: NIH 3T3 viability, CellTiter-Glo ATP luminescence, 48-72 h; activity change, negative = cytotoxicity: at 96.7 µM (top of the series) unless noted; series mostly up to 96.7 µM
# How it was run: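 Cytotoxicity is measured as loss of cellular ATP: NIH 3T3 cells (400/well) are exposed to compound for 48 or 72 hr at 37 °C, then CellTiter-Glo luminescence is imaged after 10 min at room temperature.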
# % is scaled to controls: 0 for no effect and ±100 for the full control effect; potency is read from the fitted curve at half-maximal effect; tags tell the direction and shape of the fitted curve.
SMILES,Potency,"activity change, negative = cytotoxicity",outcome
COc1cc(OC)cc(-c2onc(C)c2C(=O)NCCC(c2ccccc2)c2ccccc2)c1,"inconclusive: 39.8 µM [inhibitor, partial curve, poor fit]",,
O=S(=O)(c1ccc(-n2cccn2)cc1)N1CCCC2(CCNC2)C1 (stereo not drawn),,inactive: -16.8%,
Cc1cccc(-c2cccc(NC(=O)C3CCCN(C(=O)c4cccc(C)n4)C3)c2)c1 (stereo not drawn),"inconclusive: 56.2 µM [inhibitor, partial curve, poor fit]",,
COC(=O)c1sccc1NC(=O)N1CCCC1c1noc(COc2ccc(F)cc2)n1 (stereo not drawn),"inconclusive: 39.8 µM [inhibitor, partial curve, poor fit]",,
CCOC(=O)N1CCN(Cc2cccc(OCC(O)CN3CCOCC3)c2)CC1 (stereo not drawn),,inactive: -16.5%,
COc1ccc(S(=O)(=O)N2CCc3c(C(=O)NC4CCCC4)cccc32)cc1,"inconclusive: 50.1 µM [inhibitor, partial curve, poor fit]",,
CCOCC(=O)N1CCCN(S(C)(=O)=O)c2ccccc21,,inactive: 3.83%,
CCn1ncc(N2CCCC(CC(=O)N3CCN(c4cccc(Cl)c4)CC3)C2)cc1=O (stereo not drawn),"inconclusive: 11.2 µM [inhibitor, partial curve, poor fit]",,
O=C(NC1CCc2ccccc21)c1cc(COc2ccc3c(c2)OCO3)[nH]n1 (stereo not drawn),"inconclusive: 89.1 µM [inhibitor, single point]",,
CC(=O)N1CCN(Cc2ccccc2-c2cccnc2)CC1,,inactive: -13.2% [at 138 µM],
Cc1cccc(-n2nc(-c3c(C)nc4scc(CC(=O)N5CCCCC5)n4c3=O)cc2C)c1C,,inactive: -11.2%,
O=C(c1ccc(-c2ccccc2)cc1)N1C[C@@H]2C[C@H](C1)c1ccc(NS(=O)(=O)c3cccc(F)c3)c(=O)n1C2,"inconclusive: 50.1 µM [inhibitor, partial curve, poor fit]",,
CNC(C)c1ccccc1OC (stereo not drawn),,inactive: 4.79% [at 174 µM],
CC1(C)[C@H](Cc2cc(COc3ccccc3)on2)C[C@@H]1NC1CCOCC1,"inconclusive: 56.2 µM [inhibitor, full curve, poor fit]",,
Cc1ccc(S(=O)(=O)N2C[C@@H](F)C[C@H]2C(=O)N2CCOCC2)c(C)c1,,inactive: -21.5%,
O=C(C1CCCC1)N1C[C@@H](COc2ccncc2)[C@H](c2ccccn2)C1,"inconclusive: 79.4 µM [inhibitor, partial curve, poor fit]",,
O=C(NCc1ccccn1)C1CCCCN1Cc1ccc(-c2ccsc2)cc1 (stereo not drawn),active: 39.8 µM,,
NCCCN1C(=O)CC[C@H]2CN(C(=O)CN3CCNC(=O)C3)CC[C@H]21,,,inactive
CN(CC#N)C(=O)c1cc(-c2ccc(F)cc2)nc2c1cnn2C,"inconclusive: 89.1 µM [inhibitor, partial curve, poor fit]",,
COc1ccc(-c2cc(N3CCN(C(=O)c4ccc(OC)cc4OC)CC3)n[nH]2)cc1,"inconclusive: 11.2 µM [inhibitor, full curve, poor fit]",,
CC(C)NC(=O)C1COC2(CCN(C(=O)c3cccc([N+](=O)[O-])c3)CC2)N1C(=O)c1ccccc1 (stereo not drawn),"inconclusive: 70.8 µM [inhibitor, partial curve, poor fit]",,
CCCc1ccc(-c2nc(C3CCOC3)no2)cc1 (stereo not drawn),,inactive: -21.2%,

SMILES,Potency,"activity change, negative = cytotoxicity",outcome
C=CCn1cc2c3c(cccc31)[C@H](CC(C)C)N[C@H](C(=O)NCCCN1CCCC1=O)C2,"inconclusive: 79.4 µM [inhibitor, partial curve, poor fit]",,
COc1ccccc1NC(=O)Cn1c(-c2ccc(Cl)cc2)nc(C)c(CCO)c1=O,,inactive: -11.2%,
COc1ccc(NC(=O)N2CCC3(CC2)SCC(=O)N3c2ccc(F)cc2)cc1,"inconclusive: 50.1 µM [inhibitor, single point]",,
Cc1ccc2nc(CO[C@H]3CN(Cc4ccc(Cl)cc4)C[C@H]3F)[nH]c2c1,"inconclusive: 79.4 µM [inhibitor, partial curve]",,
CN1CCCCCCN(CC2CCCCC2)[C@H]2CCC[C@H]2C1=O,"inconclusive: 44.7 µM [inhibitor, partial curve, poor fit]",,
COc1cc(NC(=O)N[C@H]2CO[C@H]3[C@@H]2OC[C@@H]3Nc2nccc(-c3ccc(N(C)C)cc3)n2)cc(OC)c1,"inconclusive: 8.91 µM [inhibitor, full curve]",,
O=C(Nc1ccc2c(c1)OCCO2)N1CCCC1c1nncn1C1CCCC1 (stereo not drawn),,inactive: -8.93%,
Cc1cccc(S(=O)(=O)N2CCc3c(C(=O)NC(C)C)cccc32)c1,"inconclusive: 44.7 µM [inhibitor, partial curve, poor fit]",,
COc1ccc2cc1Nc1ccc(cc1)C[C@H](NC(=O)Cc1cccc(Cl)c1)C(=O)N(C)[C@H](C(=O)NCCC(C)C)C2,active: 25.1 µM,,
CCCCn1c(=O)c(C(=O)NCC(=O)OC)nc2cccnc21,,inactive: -30.8% [at 138 µM],
COCCN[C@@H]1C[C@@H]2c3[nH]c4ccccc4c3C[C@@H](C(=O)OC)N2[C@H](c2ccc(F)c(F)c2)C1,active: 25.1 µM,,
OCc1ccc(-c2cc(-c3ccncc3)c3cncn3c2)cc1,active: 39.8 µM,,
CC(C)CNC(=O)N1CCC(N2C(=O)C3(CCCCC3)C2c2ccncc2)CC1 (stereo not drawn),,inactive: -20.3%,
Fc1cccc(-c2cnc(Nc3cncnc3)c3c2CCO3)c1,,inactive: -24.4% [at 138 µM],
Cc1ccc2c(ccn2CCNC(=O)Cn2nc3c(cc2=O)CCCCC3)c1,,inactive: -6.93%,
Cc1cccc(CC(=O)N2CCC(n3cc(-c4nc(C)no4)nn3)CC2)c1,,inactive: -5.64%,
CC(C)NC(=O)NC[C@H]1O[C@@H]2C[C@@H](CC(=O)NCc3nccn3C)O[C@@H]2[C@@H]1O,,inactive: -20.6% [at 174 µM],
O=C1NCc2ccccc2CC12CCN(Cc1cc(F)ccc1F)C2 (stereo not drawn),"inconclusive: 89.1 µM [inhibitor, single point]",,
O=C(c1ccccc1Cl)N1CCCC(c2nn(-c3ccc(F)cc3)c(=O)[nH]2)C1 (stereo not drawn),"inconclusive: 44.7 µM [inhibitor, partial curve, poor fit]",,
O=C(NCCc1ccc(Cl)cc1)c1nc(-c2ccccc2)c2ccccn12,"inconclusive: 50.1 µM [inhibitor, partial curve, poor fit]",,
CN(C)c1ccc(C(=O)N2CCN3C(=O)c4cc(-c5ccc6c(c5)OCO6)ccc4NC(=O)[C@H]3C2)cc1,,inactive: -20.1%,
